PubChem BioAssay AID1224903 (Bradner/Qi Labs at DFCI, 2016)
Where “and” joins values, the source holds several entries; their conditions need not be identical. Identical values can stand only once. The list shows a part of the results. These are further read-outs of the screen, such as a control signal, another cell line or another target. No call is given for them. Compounds called inactive in the main read-out are mostly missing here.

Biological target: Chromobox protein homolog 7 (Homo sapiens) (UniProt O95931)
Chain of UniProt O95931 (O95931 whole entry, looked up): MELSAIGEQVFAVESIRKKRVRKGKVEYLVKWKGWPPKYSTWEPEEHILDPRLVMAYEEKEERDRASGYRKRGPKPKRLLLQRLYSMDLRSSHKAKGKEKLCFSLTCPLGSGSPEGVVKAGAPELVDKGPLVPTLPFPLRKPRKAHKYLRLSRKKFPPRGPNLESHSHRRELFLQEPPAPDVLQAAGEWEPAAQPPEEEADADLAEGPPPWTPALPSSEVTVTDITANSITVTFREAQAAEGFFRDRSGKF
Experiment: blockers of CBX7 binding to H3K27me3 peptide – biochemical, AlphaScreen, primary screen (AID 1224903)
Conditions: AlphaScreen His6-CBX7 / biotin-H3K27me3 peptide binding; measured here: z-score of CBX7 signal; stronger effect = lower value

Row | SMILES | z-score
1 | CC1CN(S(=O)(=O)c2ccc(C(=O)Nc3nnc(-c4ccccc4Cl)o3)cc2)CC(C)O1 (stereo not given) | -4.22
2 | COc1ccc(CNc2nc(SCC(=O)Nc3cc(C)[nH]n3)nc3ccccc23)cc1 | -1.75
3 | Cc1ccc(C)c(N2CCN(C(=O)CC3Sc4ccccc4NC3=O)CC2)c1 (stereo not given) | -9.5
4 | CCc1cc(C(=O)Cc2ccc3ccccc3n2)c(O)cc1OC | -2.84
5 | O=C(O)c1c[nH]c2ccc(S(=O)(=O)NCCCN3CCCC3=O)cc2c1=O | -6.73
6 | Cc1ccc2c(c1)N(C(C)C(=O)NCc1ccccn1)C(=O)CO2 (stereo not given) | -10
7 | COC(=O)c1c[nH]n2c(NC3CCCCCC3)c(-c3cccc(C)c3)nc12 | -11.1
8 | O=C(c1ccc2c(c1)N(Cc1ccccc1)CCS2)N1CCCCCC1 | -0.717
9 | Cc1ccc(-c2nnc(Nc3cccc(O)c3)c3ccccc23)cc1 | -10.9
10 | CCC(=O)Nc1nc(C)c(-c2csc(Nc3cc(OC)ccc3OC)n2)s1 | -7.32
11 | c1nc(Oc2ccc3c4c2CCCN4CCC3)c2c3c(sc2n1)CCCC3 | -6.99
12 | Clc1ccc2nc(-c3ccccn3)c(Nc3ccc4c(c3)OCCO4)n2c1 | -6.8
13 | Cc1ccccc1Oc1cc([N+](=O)[O-])cc2c1C(=O)Nc1cc(Cl)ccc1O2 | -16.6
14 | CC(=O)Nc1ccc(S(=O)(=O)Nc2cccc3cccnc23)cc1 | -41.8
15 | COC(=O)c1c[nH]n2c(NC3CCCCCC3)c(-c3ccc(OC)cc3)nc12 | -13
16 | CCCCCn1c(=O)[nH]c2cc(C(=O)NCc3ccccn3)ccc2c1=O | -16.8
17 | O=S(=O)(c1ccccc1)N1CCN(c2ccc3nnc(-c4ccccc4)n3n2)CC1 | -12.6
18 | COc1ccc(CN2C(=O)c3cccnc3C2Nc2cc(Cl)ccc2OC)cc1 (stereo not given) | -12.8
19 | CN(C(=O)Cc1nc(N)n[nH]1)C1(C(=O)Nc2ccccc2)CCCCC1 | -17.7
20 | COc1ccc(CN2C(=O)c3cccnc3C2O)cc1 (stereo not given) | -26.8
21 | Cc1nc2ccccn2c1-c1csc(Nc2ccc(N(C)C)cc2)n1 | -18.6
22 | CCOc1ccc(N2CCc3c2nc2ccc(Br)cc2c3N)cc1 | -10.6
23 | CN(C)S(=O)(=O)c1ccc(C(=O)Nc2nnc(-c3cccs3)o2)cc1 | -13.2
24 | COC(=O)c1c[nH]n2c(NC3CCCCCC3)c(-c3ccc(C)cc3)nc12 | -11.3
25 | Cc1ccc2nc(-c3ccccn3)c(Nc3ccc4c(c3)OCO4)n2c1 | -20.9
26 | CC1CCCN(S(=O)(=O)c2ccc(C(=O)Nc3nc(-c4ccccn4)cs3)cc2)C1 (stereo not given) | -25.2
27 | CCCc1cc(-c2nc(-c3cccc([N+](=O)[O-])c3)cs2)ccn1 | -6.04

Row | SMILES | z-score
28 | COc1ccccc1-n1c(-c2ccc(C)cc2)cc2c1CC(C)(C)CC2=O | -6.77
29 | O=S(=O)(c1ccccc1)c1nc(-c2ccccc2F)oc1N1CCCCC1 | -4.85
30 | O=C(Nc1nnc(-c2ccc(Cl)s2)o1)c1ccc(S(=O)(=O)N2CCCCC2)cc1 | -9.49
31 | CCCCn1cnc2cc(NCc3cccc(Br)c3)ccc21 | -21.5
32 | c1ccc2cc(-c3csc(Nc4ccc5c(c4)OCO5)n3)ccc2c1 | -8.31 and -7.88
33 | N#Cc1nc(COc2ccccc2F)oc1NCCc1ccccc1 | -9.25
34 | CCOC(=O)c1cnc2ccc(C)cc2c1Nc1ccc(N2CCCCC2)cc1 | -7.8
35 | CCn1cnc2cc(NCc3cccc(Br)c3)ccc21 | -15.9
36 | O=C(CN1CCCCC1)Nc1c2c(nc3c1CCC3)CCCC2 | -7.41
37 | CCNc1ccc(Br)cc1-c1nc2ccccc2n(CC)c1=O | -10.5
38 | Cc1ccc2c(c1)N(CCC(=O)NCc1ccccn1)C(=O)CO2 | -8.9
39 | CN(C1CCCCC1)S(=O)(=O)c1ccc(C(=O)Nc2nnc(C3CC3)o2)cc1 | -1.69
40 | Cc1ccn2c(Nc3ccc(F)cc3)c(-c3ccccn3)nc2c1 | -26.7
41 | COC(=O)c1c[nH]n2c(NC3CCC(C)CC3)c(-c3ccc(Cl)cc3)nc12 (stereo not given) | -0.754
42 | COc1ccc(CN2C(=O)c3cccnc3C2Nc2cc(Cl)c(OC)cc2OC)cc1 (stereo not given) | -11.9
43 | COc1ccc(-n2ccnc2SCC(=O)Nc2ccc(C)c(Cl)c2)cc1 | -0.701
44 | c1ccc(-c2nc(-c3cccnc3)[nH]c2-c2ccccc2)cc1 | -0.688
45 | CC(=O)N1CCN(CC(O)COc2ccc(Br)cc2)CC1 (stereo not given) | -1.11
46 | O=C(CN1CCCCCC1)Nc1c2c(nc3c1CCC3)CCCC2 | -12.4
47 | COCCN(CCOC)S(=O)(=O)c1ccc(C(=O)Nc2nnc(-c3ccccc3Cl)o2)cc1 | -3.23
48 | COc1ccc(-c2nc(-c3ccccc3)c(-c3ccccc3)[nH]2)c(OC)c1 | -15.7
49 | CCOC(=O)c1ccc(NC2c3ncccc3C(=O)N2Cc2ccc(F)cc2)cc1 (stereo not given) | -7.13
50 | O=C(CN1C(=O)COc2ccc(Cl)cc21)NCc1ccc(F)cc1 | -1.18
51 | CCOc1ccc(CN(C)CCc2ccccn2)cc1 | -4.15
52 | O=C(CCCN1C(=O)c2cccnc2C1=O)N1CCN(c2ccccc2)CC1 | -4.9
53 | Cc1cc(NC(=O)CSc2nnc(CNC(=O)COc3ccc(Cl)cc3)o2)no1 | -12.2
54 | CCN(c1ccccc1)S(=O)(=O)c1ccc(C(=O)Nc2nnc(C)o2)cc1 | -24.7

Row | SMILES | z-score
55 | CC(C)c1ccc2oc(-c3ccc(NC(=O)c4ncn[nH]4)cc3)nc2c1 | -25.7
56 | OC1(c2ccc3c(c2)c2c4n3CCN(Cc3ccccc3)C4CCC2)CCCC1 (stereo not given) | -7.12
57 | COc1ccc(CN(C)CCc2ccccn2)cc1OC | -4.16
58 | CCOc1ccc2nc(N3CCCC(C(=O)N4CCN(C)CC4)C3)sc2c1 (stereo not given) | -11.6
59 | COC(=O)c1c[nH]n2c(NC3CCCCCC3)c(-c3ccc(F)cc3)nc12 | -10.9
60 | Cc1cccc2nc(-c3ccccn3)c(Nc3ccc(C(C)C)cc3)n12 | -26.3
61 | COC(=O)c1c[nH]n2c(NC3CCC(C)CC3)c(-c3cccc(F)c3)nc12 (stereo not given) | -0.752
62 | COCc1cc(CN2CCC(C)CC2)c(O)c2ncccc12 | -26.5
63 | COc1ccccc1-n1cnc2cc(NCc3ccc(N(C)C)cc3)ccc21 | -33.5
64 | Oc1ccc(-c2nc(-c3ccccc3)c(-c3ccc(Br)cc3)[nH]2)cc1 | -0.541
65 | Cc1ccc(OCC(O)Cn2cnc3cc(C)c(C)cc32)cc1 (stereo not given) | -17.5
66 | COc1ccc(S(=O)(=O)NCCc2c(C)[nH]c3ccc(C)cc23)cc1 | -0.543
67 | COc1ccc(NC(=O)c2c(NCc3cccnc3)sc3c2CCCC3)c(OC)c1 | -13.7
68 | CCOc1ccc(NC2c3ncccc3C(=O)N2Cc2ccc(F)cc2)cc1 (stereo not given) | -6.47
69 | c1ccc(C(c2ccccc2)c2nc(-c3cccnc3)no2)cc1 | -11.7
70 | COc1ccc(-c2nc(-c3ccccc3)c(-c3ccc(F)cc3)[nH]2)cc1OC | -15.3
71 | CCc1nnc(NC(=O)c2ccc(S(=O)(=O)N(CC(C)C)CC(C)C)cc2)o1 | -1.56
72 | N#Cc1nc(COc2ccc(F)cc2)oc1N1CCCCCC1 | -3.15
73 | CCOc1ccc(NCc2nc3ccccc3n2CCOc2ccccc2)cc1 | -14.8
74 | O=C(CCN1C(=O)c2cccnc2C1=O)Nc1cccc(F)c1 | -9.38
75 | O=C(Nc1nnc(-c2cccs2)o1)c1ccc(S(=O)(=O)N2CCCC2)cc1 | -14.6
76 | O=C(CSc1n[nH]c(-c2ccncc2)n1)c1ccc(Br)cc1 | -1.56
77 | CCC(=O)Nc1nc(C)c(-c2csc(Nc3ccc(C(=O)O)cc3)n2)s1 | -1.03
78 | Oc1c(C(Nc2ccccn2)c2ccccc2)ccc2cccnc12 (stereo not given) | -7.07
79 | CCN(CC)c1ccc(Nc2nc(-c3c(C)nc4cc(C)ccn34)cs2)cc1 | -21.4
80 | COc1ccc(-c2nnc(NC(=O)c3ccc(OC)c(OC)c3)o2)cc1 | -15.8
81 | CN(c1ccccc1)S(=O)(=O)c1ccc(C(=O)Nc2nc(-c3ccccn3)cs2)cc1 | -6.92

Row | SMILES | z-score
82 | Cc1onc(-c2c(F)cccc2Cl)c1C(=O)NCC1COc2ccccc2O1 (stereo not given) | -0.594
83 | CCOC(=O)c1cnc2ccc(C)cc2c1Nc1ccc(N(C)C)cc1 | -7.11
84 | COc1ccc(OC)c(-c2nc(-c3ccccc3)c(-c3ccccc3)[nH]2)c1 | -14.7
85 | COc1ccc(C(CC(=O)c2ccco2)Sc2cccc3cccnc23)cc1OC (stereo not given) | -3.93
86 | O=C(NCc1ccc2c(c1)OCO2)[C@H](Cc1ccccc1)N1Cc2ccccc2C1=O | -1.57
87 | CCOc1cc2c(cc1OCC)C1C(C(=O)Nc3cc(C)ccn3)c3ccccc3C(=O)N1CC2 (stereo not given) | -6.48
88 | Cc1[nH]c2ccc(OCc3ccccc3)cc2c1CCNC(=O)c1ccnn1C | -1.05
89 | COc1ccccc1Nc1nc(-c2sc(N)nc2C)cs1 | -12.4
90 | CSCC[C@@H](C(=O)Nc1cccc(F)c1)N1Cc2ccccc2C1=O | -1.43
91 | COCc1nnc(NC(=O)c2ccc(S(=O)(=O)N(C)C3CCCCC3)cc2)o1 | -1.47
92 | COc1ccc(-c2nnc(NC(=O)c3ccc(S(=O)(=O)N(C)Cc4ccccc4)cc3)o2)cc1 | -16.7
93 | COc1ccc(NCC(O)Cn2c3ccccc3c3ccccc32)cc1 (stereo not given) | -16.2
94 | CCOc1ccccc1CN(CCc1ccc2c(c1)OCO2)Cc1ccccn1 | -1.62
95 | COC(=O)c1c[nH]n2c(NC3CCCCCC3)c(-c3cccc(OC)c3)nc12 | -9.96
96 | O=C(Nc1nnc(C2CC2)o1)c1ccc(S(=O)(=O)N2CCCC2)cc1 | -15.5
97 | O=S(=O)(Nc1nc2ccccc2nc1N1CCc2ccccc2C1)c1ccc(Br)cc1 | -5.92
98 | COc1ccc(N2CCN(c3oc(COc4cccc(C)c4)nc3C#N)CC2)cc1 | -14.4
99 | CCOC(=O)c1cnc2ccc(OCC)cc2c1Nc1ccc2c(c1)OCO2 | -0.65
100 | CCN(CCCNC(=O)CC(C(=O)N1CCc2ccccc21)n1ccnc1)c1cccc(C)c1 (stereo not given) | -19.3
101 | COC(=O)c1c[nH]n2c(NC3CCCC3)c(-c3ccc(OC)cc3)nc12 | -0.999
102 | COc1ccc(-c2nnc(NC(=O)c3ccc(S(=O)(=O)N(C)C)cc3)o2)cc1 | -16.2
103 | CCN1CCCc2cc(CN(CCN3CCOCC3)C(=O)Nc3ccc(C)c(C)c3)ccc21 | -15.4
104 | CC(C)c1ccc(Nc2c(-c3ccccn3)nc3ccccn23)cc1 | -31.8
105 | Cc1ccc2nc(-c3ccccn3)c(Nc3ccccc3C)n2c1 | -21.4
